Measurements as given in PubChem BioAssay AID588342 (National Center for Advancing Translational Sciences (NCATS), 2011).
About 25,000 (6.9%) of roughly 360,000 compounds were called active. This list was built around the results that the source calls inconclusive (neither active nor inactive); the mix of calls is not that of the screen. Calls follow the shape of the dose curve; as a rule, active = well fitted inhibition curve with a large enough effect; inconclusive = small, poorly fitted or top-dose-only effect; inactive = flat fitted curve, though single readings scatter. Where the call is inconclusive, the potency comes from a doubtful curve fit.

Biological target: Luciferin 4-monooxygenase (Photinus pyralis) (UniProt P08659)
Test: qHTS profiling assay for firefly luciferase inhibitor/activator using purifed enzyme and Km concentrations of substrates (counterscreen for miR-21 project); also: nearly all actives have a fitted effect of over 55% in size;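 as to activity change, negative = inhibition: plate controls were vehicle for no effect and reference inhibitor for full effect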
Details: purified FLuc, luminescence inhibition; activity change, negative = inhibition: at 57.5 µM (top of the series)
Outline: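 Purified P. pyralis luciferase, 10 nM final, with Km-level 10 uM D-luciferin and 10 uM ATP in 50 mM Tris acetate pH 7.5, 10 mM Mg acetate, 0.01% Tween-20, 0.05% BSA; 6-point qHTS titration about 60 µM downward; luminescence read.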
Potency is read from the fitted curve at half-maximal effect; tags tell the direction and shape of the fitted curve.

Sequence of UniProt P08659 (P08659 whole entry, looked up): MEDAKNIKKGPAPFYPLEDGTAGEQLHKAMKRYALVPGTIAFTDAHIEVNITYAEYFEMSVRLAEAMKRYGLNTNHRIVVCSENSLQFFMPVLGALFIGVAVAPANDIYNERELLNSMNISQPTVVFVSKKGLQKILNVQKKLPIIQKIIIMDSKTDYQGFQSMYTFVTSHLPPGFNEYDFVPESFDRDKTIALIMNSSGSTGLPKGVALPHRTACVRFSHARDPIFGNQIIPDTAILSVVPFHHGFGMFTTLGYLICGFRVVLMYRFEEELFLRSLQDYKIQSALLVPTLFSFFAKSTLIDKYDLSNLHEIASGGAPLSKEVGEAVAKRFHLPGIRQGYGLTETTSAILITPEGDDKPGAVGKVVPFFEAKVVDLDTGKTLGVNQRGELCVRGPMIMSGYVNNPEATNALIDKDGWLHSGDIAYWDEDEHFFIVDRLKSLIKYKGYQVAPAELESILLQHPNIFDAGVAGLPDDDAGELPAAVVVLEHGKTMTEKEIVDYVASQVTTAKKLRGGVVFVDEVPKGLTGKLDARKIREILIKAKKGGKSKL

Row | SMILES | Potency | activity change, negative = inhibition
1 | O=C(Nc1nc2c(F)cc(F)cc2s1)C1COc2ccccc2O1 (stereo unspecified) | inconclusive: 37.9 µM [inhibitor, single point] | –
2 | CN(C)CC[n+]1ccc(C(=O)c2ccccc2)cc1 | – | inactive: -2.85%
3 | COc1ccc(Nc2nnc(-c3ccc(C)c(S(=O)(=O)NCc4nc5ccccc5[nH]4)c3)c3ccccc23)cc1 | inconclusive: 4.26 µM [inhibitor, partial curve, poor fit] | –
4 | COc1cc(/C=C2/C(=O)NN(c3ccc(Cl)c(Cl)c3)C2=O)cc([N+](=O)[O-])c1O | inconclusive: 23.9 µM [inhibitor, partial curve] | –
5 | CC(=O)Nc1ccc(NC(=O)/C=C/c2ccc(Cl)cc2)cc1 | – | inactive: -8.36%
6 | Cc1ccc(NC(=S)C2=C(O)c3sccc3N(C)S2(=O)=O)cc1 | inconclusive: 26.9 µM [inhibitor, single point] | –
7 | O=C(O)c1cccc(C(=O)Cc2ccccc2)c1 | inconclusive: 23.9 µM [inhibitor, partial curve, poor fit] | –
8 | O=C(COC(=O)c1ccc(Br)o1)Nc1nc2ccccc2s1 | – | inactive: -17.1%
9 | COCCNC(=O)c1onc(CSc2cccc(Cl)c2)c1C(=O)O | inconclusive: 26.9 µM [inhibitor, partial curve, poor fit] | –
10 | O=C(O)C(Oc1ccc2cc(-c3ccc(Cl)cc3)c(=O)oc2c1)c1ccccc1 (stereo unspecified) | inconclusive: 21.3 µM [inhibitor, single point] | –
11 | N#Cc1nc(-c2ccccc2Cl)oc1NCc1ccco1 | inconclusive: 21.3 µM [inhibitor, single point] | –
12 | CCOc1ccccc1C(=O)NC1(C(F)(F)F)C(=O)Nc2c1c(=O)[nH]c(=O)n2-c1ccccc1 (stereo unspecified) | inconclusive: 9.53 µM [inhibitor, partial curve, poor fit] | –
13 | COc1cccc(CNC(=O)c2ccc3nc(-c4ccccc4)c(-c4ccccc4)nc3c2)c1OC | inconclusive: 8.49 µM [inhibitor, partial curve, poor fit] | –
14 | CCC1CCCCN1C(=O)CSc1nnc(-c2c[nH]c3ccccc23)o1 (stereo unspecified) | inconclusive: 37.9 µM [inhibitor, single point] | –
15 | Cc1ccccc1NC(=O)c1nc(S(C)(=O)=O)ncc1N(Cc1ccco1)Cc1sccc1C | – | inactive: 0.658%
16 | Cc1cc(C(=O)CSc2nc3ccccc3[nH]2)c(C)n1Cc1ccco1 | active: 0.757 µM | –
17 | S=c1[nH]nc(-c2cccc(Cl)c2)n1CCN1CCCCC1 | – | inactive: 0.278%
18 | COc1ccc(CN(C)C(=O)c2cc(-c3ccccc3)nc3ccc(C)cc23)c(OC)c1OC | inconclusive: 30.1 µM [inhibitor, single point] | –
19 | CCc1ccc(/C=C2/SC(N3CCOCC3)=NC2=O)cc1 | inconclusive: 30.1 µM [inhibitor, single point] | –
20 | Cc1csc(Nc2cccc3ccccc23)n1 | inconclusive: 37.9 µM [inhibitor, partial curve, poor fit] | –
21 | CC(C)(C)C(=O)c1cnc(Nc2ccccc2Cl)s1 | active: 2.39 µM | –
22 | COc1cc(OC)nc(/N=C/N(C)C)n1 | – | inactive: -1.17%
23 | COC(=O)c1cc2sccc2n1CC(=O)Nc1ccc(C)cc1C | – | inactive: -10.5%
24 | CCCCOC(=O)Nc1nc2ccc(OC)cc2s1 | inconclusive: 2.69 µM [inhibitor, partial curve, poor fit] | –

Row | SMILES | Potency | activity change, negative = inhibition
25 | O=C(O)c1cccc(NC(=O)c2cc3cc(Br)cc(Br)c3oc2=O)c1 | active: 12 µM | –
26 | CC(=O)c1cccc(NC(=O)Cc2ccc(NC(=O)N3CCCCc4ccccc43)cc2)c1 | inconclusive: 21.3 µM [inhibitor, single point] | –
27 | COc1cccc(NC(=O)Nc2ccncc2)c1 | inconclusive: 37.9 µM [inhibitor, single point] | –
28 | COc1ccccc1N1CCN(Cc2nc(N)nc(Nc3ccc(C)cc3)n2)CC1 | inconclusive: 21.3 µM [inhibitor, partial curve] | –
29 | CCC(=O)Nc1ccc(NC(=O)c2cc3ccccc3o2)c(OC)c1 | inconclusive: 3.38 µM [inhibitor, partial curve, poor fit] | –
30 | CCN1C(=O)/C(=C\N2CCCc3ccccc32)SC1=S | inconclusive: 16.9 µM [inhibitor, single point] | –
31 | Cc1cc(C)c(S(=O)(=O)N2CCN(C(=O)N(C)C)CC2)c(C)c1 | inconclusive: 26.9 µM [inhibitor, partial curve, poor fit] | –
32 | Cc1ccc(NC(=O)C2CCC(CNS(=O)(=O)c3ccc4c(c3)CCCC(=O)N4)CC2)cc1F (stereo unspecified) | inconclusive: 7.57 µM [inhibitor, partial curve, poor fit] | –
33 | Cc1ccc(NC(=O)c2ccc(Cl)nc2)cc1 | inconclusive: 23.9 µM [inhibitor, single point] | –
34 | COc1ccc2c(c1)c1c(c(=O)n(Cc3ccccc3)c(=O)n1Cc1ccccc1Cl)n2C | – | inactive: -0.573%
35 | CCc1ccc(NC(=O)C2=C(C)C(=O)OC23CCCCC3)cc1 | – | inactive: -0.306%
36 | O=C(CSc1nnc(-c2cccc(F)c2)o1)N1CCCC1 | inconclusive: 26.9 µM [inhibitor, partial curve, poor fit] | –
37 | Brc1ccc2ncnc(Nc3ccc(N4CCOCC4)cc3)c2c1 | inconclusive: 23.9 µM [inhibitor, single point] | –
38 | O=C(CC1C(=O)NCCN1Cc1cccc(Oc2ccccc2)c1)NCCc1cscn1 (stereo unspecified) | – | inactive: -5.34%
39 | O=C1c2ccccc2C(=O)N1CSc1ncccn1 | inconclusive: 21.3 µM [inhibitor, single point] | –
40 | CN(CC(=O)N1CCc2ccccc21)S(=O)(=O)c1ccc(Br)s1 | inconclusive: 21.3 µM [inhibitor, single point] | –
41 | Cc1ccc(C)c(NC(=O)C(Cc2ccccc2)n2cccc2)c1 (stereo unspecified) | – | inactive: 0.873%
42 | COc1ccc(SCCN2CC[C@@H](C)CCC2=O)cc1 | inconclusive: 28.2 µM [inhibitor, single point] | –
43 | CCOC(=O)CSc1nc2ccc(N)cc2s1 | active: 19 µM | –
44 | CCN1CCN(Cc2ccc(NC(=O)c3cc(NC(=O)C4=NN(c5ccccc5)C(=O)C4)cc(OC)c3)cc2C(F)(F)F)CC1 | inconclusive: 16.9 µM [inhibitor, partial curve] | –
45 | CCOc1ccccc1CNC(=O)CCC(=O)N1CCSc2ccccc21 | – | inactive: -8.54%
46 | CCOc1cc(/C=N/Nc2ccc(C(=O)O)cc2)ccc1OC(=O)c1ccccc1C | inconclusive: 37.9 µM [inhibitor, partial curve, poor fit] | –
47 | Cc1ccc(NC(=O)CN2C(=O)C(c3ccc(C(C)(C)C)cc3)=NC2(C)C)cc1 | – | inactive: -8.45%
48 | COc1ccc(-n2nc(C(=O)NCC(=O)NCCc3ccc(OC)c(OC)c3)c3ccccc3c2=O)cc1 | – | inactive: -0.89%

Row | SMILES | Potency | activity change, negative = inhibition
49 | O=[N+]([O-])c1cc(-c2nc(-c3ccccc3)no2)ccc1NCc1cccnc1 | – | inactive: -10.5%
50 | CCN(CC)C(=O)CSc1ncnc2sc(-c3ccccc3)cc12 | active: 10.7 µM | –
51 | O=C(NN=c1c(=O)c2ccccc2c1=O)c1ccccc1 | inconclusive: 19 µM [inhibitor, partial curve, poor fit] | –
52 | CCOc1ccc(-n2ccnc2SCC(=O)Nc2cccc3ccccc23)cc1 | – | inactive: -15.7%
53 | Cc1ccc(OCc2cc(C(=O)N3CCC(c4ccccc4Cl)C3)no2)cc1C (stereo unspecified) | active: 26.9 µM | –
54 | Cc1cccc(CC(=O)N2CC(=O)Nc3ccc(C)cc3C2c2ccc(F)cc2)c1 (stereo unspecified) | – | inactive: 4.12%
55 | Cc1ccc(NC(=O)NCc2cccn2C)cc1C | inconclusive: 30.1 µM [inhibitor, partial curve, poor fit] | –
56 | Nc1c(C(=O)Nc2ccc3c(c2)OCCO3)nnn1Cc1ccc(F)cc1 | inconclusive: 2.69 µM [inhibitor, partial curve] | –
57 | COc1ccc(Br)cc1CNC(=O)c1ccc2nc(C(C)C)oc2c1 | – | inactive: 0.581%
58 | CC1=N/C(=C\c2ccc([N+](=O)[O-])cc2)C(=O)N1c1ccc(F)cc1F | active: 7.57 µM | –
59 | O=C(Nc1ccc2c(c1)S(=O)(=O)N=C1CCCCCN12)c1ccccc1Cl | – | inactive: -8.84%
60 | CCOC(=O)N1CCc2c(sc(NCc3cccc(F)c3)c2C(=O)Nc2ccc(OC)cc2)C1 | inconclusive: 23.9 µM [inhibitor, partial curve] | –
61 | Cc1ccc(CNc2nc3ccc(Cl)cc3n3nnnc23)cc1 | – | inactive: 3.82%
62 | Cc1ccc(N(C)C(=O)c2ccc3c(Cl)c4c(nc3c2)CCC4)cc1C | inconclusive: 16.9 µM [inhibitor, partial curve] | –
63 | Cc1ccccc1OCCOc1ccccc1C=C(C#N)C#N | inconclusive: 10.7 µM [inhibitor, partial curve] | –
64 | Cc1cc(OC(=O)c2ccccc2Br)cc(=O)n1C | active: 21.3 µM | –
65 | CC(=O)Nc1ccc(-c2nc(C)c(C(C)=O)n2O)cc1 | inconclusive: 19 µM [inhibitor, partial curve] | –
66 | COc1ccc(N(Cc2cccs2)C(=O)COc2cccc(C)c2C)cc1 | inconclusive: 10.7 µM [inhibitor, partial curve, poor fit] | –
67 | Oc1[nH]c(=S)sc1/C=C1\C(c2ccccc2)=Nc2ccccc21 | inconclusive: 37.9 µM [inhibitor, partial curve, poor fit] | –
68 | Nc1nc(-c2ccccn2)nc(N)c1Cc1ccc(Cl)cc1Cl | inconclusive: 19 µM [inhibitor, partial curve] | –
69 | Cc1cc(=O)oc2c1c(C)nn2-c1ccc(Br)cc1 | inconclusive: 37.9 µM [inhibitor, partial curve, poor fit] | –
70 | Cc1ccc(S(=O)(=O)c2nc(-c3cccs3)oc2SCC(=O)Nc2cc(C)cc(C)c2)cc1 | – | inactive: -4.05%
71 | CC(C)[C@H](N)c1nnc2n1N=C(c1ccc(Cl)cc1)CS2 | – | inactive: 0.745%
